From PubChem BioAssay AID1508624 (National Center for Advancing Translational Sciences (NCATS), 2021)
About 120 (0.25%) of roughly 48,000 compounds were called active. Another 4% or so got no clear call; they are omitted. Calls follow the shape of the dose curve; as a rule, active = well fitted activation curve with a large enough effect; inconclusive = small, poorly fitted or top-dose-only effect, or another doubt; inactive = no such curve, though single readings can be large or run the other way. The list shows a part of the results.

assay: Primary qHTS for Identification of Small Molecule Activators of Huntingtin-Antisense Promoter Activity; conditions: HEK293 HTT-AS promoter firefly luciferase reporter (activity 0% = vehicle and -100% = no light), 24 h; series mostly up to 57.5 µM; activity change, positive = activation: at the top concentration; also: nearly all actives have a fitted effect of over 55% in size
Summary of the method: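 Luminescence was read after Dual-Glo reagent and a 10 min room-temperature incubation. Values were normalized to vehicle (0% activity) and zero RLU (-100% activity). Reporter HEK293 cells had been exposed to compounds (up to 57.5 uM final) for 24 h.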

Activity change, positive = activation, inactive:
COCCCn1c(=N)c(C(=O)NC2CCCC2)cc2c(=O)n3ccccc3nc21 -3.35%
Cc1ccc(CCNC(=O)CCSCc2ccc(Cl)cc2)cc1 -6.61%
Cc1ccc(-c2nc3c4cnn(-c5cc(Cl)ccc5Cl)c4ncn3n2)cc1 0.688%
CCN(CC)CCNC(=O)c1cc(Br)c(N)cc1OC -5.12%
CCOc1ccc(-n2c(SCc3nc(-c4ccccc4C)no3)nnc2-c2ccccc2)cc1 -8.47%
Cc1ccc(S(=O)(=O)c2nnn3c2nc(Nc2ccc(C(C)C)cc2)c2sccc23)cc1C -19.1%
CC(C)Cc1nn2c(=O)cc(COC(=O)c3ccccc3NC(=O)c3ccccc3)nc2s1 -16.2%
CC(=O)Nc1ccc(NC(=O)CN2C(=O)CN(C)C(=O)c3ccccc32)cc1 -4.65%
O=C(Nc1ccc2c(c1)N(C1CCCC1)C(=O)c1ccccc1S2)c1ccccc1 -39.5%
COc1ccc(CCNC(=O)C(=O)NCC(c2cccs2)S(=O)(=O)c2ccccc2)cc1 (stereo not given) -41.9%
Cc1ccc(SCC(=O)Nc2ccc3oc(-c4cccc(C)c4)nc3c2)cc1 -3.84%
COc1cccc(-c2nc(CS(=O)CC(=O)N3CCN(c4cccc(C(F)(F)F)c4)CC3)c(C)o2)c1 (stereo not given) -28%
Cc1ccc(Cl)cc1NC(=O)CCS(=O)(=O)c1ccc(Br)s1 -21.6%
CCN1C(=O)CC(C(=O)Nc2ccc(OC)cc2)SC1=Nc1ccc(C)c(C)c1 (stereo not given) -6.18%
O=C(NCCC1=CCCCC1)c1ccc2c(c1)N(Cc1ccccc1)C(=O)c1ccccc1S2(=O)=O -5.89%
O=C(Cn1cc(SCc2ccccc2Cl)c2ccccc21)N1CCCCCC1 -13.5%
COc1ccc(OC)c(CNS(=O)(=O)c2ccc(-c3cc(C(F)(F)F)on3)s2)c1 -42.4%
CCC1CN(C(=O)NCc2ccc(F)cc2)c2ccccc2O1 (stereo not given) -15.1%
Cc1ccc(NC(=O)c2ccco2)c(OCc2cc(=O)n3cc(C)sc3n2)c1 -7.4%
COc1ccc(-n2c(=O)c3c4c(sc3n(Cc3cc(=O)n5c(C)cccc5n3)c2=O)CCC4)c(OC)c1 -6.73%
CC(C)(Cc1c[nH]c2ccccc12)NCC(O)COc1ccccc1C#N (stereo not given) -8.35%
Cc1ccc(Cn2c(=O)c3ccccc3n3c(-c4ccccc4)nnc23)cc1 3.37%
CCc1ccc(CNC(=O)CSCc2cnn(-c3ccccc3)c2-n2cccc2)cc1 -10.3%
COc1ccc(C2CC(=O)N3CN(C4CCCCC4)CSC3=C2C#N)cc1 (stereo not given) 4.65%
Cc1ccc(OCC(=O)Nc2ccc3nc(SCC(=O)N4CCCC4)sc3c2)cc1C -8.78%
COc1ccc(NC(=O)CCCS(=O)(=O)c2nc(-c3ccc(OC)c(OC)c3)cc(C(F)(F)F)n2)cc1OC -73.8%
O=C(NCc1ccc(Cl)cc1)C1CCCN(c2ncnc3onc(-c4ccc(F)cc4)c23)C1 (stereo not given) -20.1%
Cc1cccc(NC(=O)c2c(Br)sc3c2CCCC3)c1 -24.4%
COc1ccc(Nc2nnc(-c3ccc(C)c(S(=O)(=O)N4CCOCC4)c3)c3ccccc23)cc1 10.4%
COc1ccccc1N1CCN(C(=O)CSc2nc(-c3ccc(C(C)C)cc3)no2)CC1 -19.2%
OC(CCN1CCCCC1)(c1ccccc1)c1ccccc1 -6.68%
CCOc1cc(C2c3c(oc4ccc(F)cc4c3=O)C(=O)N2Cc2ccc(C)cc2)ccc1O (stereo not given) -11.6%
COc1ccc(C2CC(=O)c3c([nH]c(C(=O)OCc4ccccc4)c3C)C2)cc1OC (stereo not given) -22.1%
CCCCNC(=O)CSc1nc2n[nH]c(C)c2c(=N)n1-c1ccccc1CC -33.8%
O=C(COc1ccccc1F)Nc1nnc(S(=O)(=O)N2CCCCCC2)s1 -16.3%
O=C(NCCCN1CCN(c2ccccc2)CC1)c1cc2c(s1)-c1ccccc1OC2 -37.3%
Cc1ccccc1Cc1c(C)nc2nc(SCC(=O)NC(C)c3ccccc3)nn2c1C (stereo not given) -11.1%
CCC1CN(C(=O)Nc2cccc3c2CCCC3)c2cc(C)ccc2O1 (stereo not given) -30.8%
CCOC(=O)c1c(C)oc2nc(C)nc(NCCCN3CCN(c4cccc(C)c4)C(C)C3)c12 (stereo not given) -24.5%
COc1cc(Nc2ncc3c(n2)-c2ccc(Cl)cc2C(c2c(F)cccc2OC)=NC3)ccc1C(=O)O -43.8%
CCCCNC(=O)C1CCN(Cc2nc(-c3ccc(OC)c(OC)c3)oc2C)CC1 -0.222%
Cc1ccc(CNC(=O)CN(c2cc(C)cc(C)c2)S(=O)(=O)c2c(C)[nH]c(=O)[nH]c2=O)cc1 -6.77%
Cc1ccc(N2CCN(C(=O)c3nn(C)c4c3CSc3ccccc3-4)CC2C)cc1 (stereo not given) -4.31%
CCc1ccc(C2c3c(n[nH]c3C)C(=O)N2c2ccc(C)cc2)cc1 (stereo not given) 12.4%
CCc1cccc(NC(=O)CCS(=O)(=O)c2ccc(C)cc2)c1 -16.8%
O=C(NC1CCCC1)c1ccc2c(c1)N(Cc1ccc(F)cc1)C(=O)c1ccccc1S2 -28.3%
COc1ccc(NC(=O)C(Cc2ccccc2)n2cccc2)c(OC)c1 (stereo not given) -24.1%
CC(C)CCNC(=O)CSc1nc2ccsc2c(=O)n1Cc1ccccc1Cl -25.4%
COc1ccc(-c2noc(-c3ccccc3NC(=O)c3cc(OC)c(OC)c(OC)c3)n2)cc1 -4.38%
O=C(c1cccc(Cl)c1)N1CCC(c2nc3c(nnn3Cc3ccc(F)cc3F)c(=O)[nH]2)CC1 -37.2%
Cc1ccc(-c2nnc(Nc3ccc(Cl)cc3)c3ccccc23)cc1S(=O)(=O)NCC1CCCO1 (stereo not given) -13.1%
COc1cc(C(=O)Nc2ccccc2OCc2cc(=O)n3cc(C)sc3n2)cc(OC)c1OC -4.46%
COc1ccc(C(=O)c2cn(Cc3ccccc3F)c3ccc(F)cc3c2=O)cc1 -25.1%
COc1ccc(-c2[nH]c(-c3ccc(OC)c(OC)c3)nc2SCC(=O)Nc2ccccc2)cc1 -16.2%
Cc1cccc(NC(=O)c2oc3ccc(S(=O)(=O)N4CCCCC4)cc3c2C)c1C -10.6%
Cn1ccc2cc(S(=O)(=O)N3CCCN(C(=O)Nc4ccc(Br)cc4)CC3)ccc21 -27.4%
CCOc1ccccc1C(=O)N(Cc1ccc(N(C)C)cc1)Cc1ccco1 -33.3%
COc1ccc(CCNC(=O)CSc2nnc(-c3ccc(C)cc3)c(-c3ccc(C)cc3)n2)cc1OC -29.5%
Cc1ccc(-c2noc(-c3ccc(NCC4CCCO4)c([N+](=O)[O-])c3)n2)cc1 (stereo not given) 4.77%
CCCCOc1cccc(C(=O)N(Cc2ccc(Cl)cc2)C2CCS(=O)(=O)C2)c1 (stereo not given) -24.2%
